Assay results taken from the BET-seq Pho4 binding data (Le et al. 2018).
Some of the results follow. The energies were worked out here from pooled read counts, against the library average; single values are noisy.

What follows are sequences tested against T1, Pho4 (S. cerevisiae) (UniProt P07270) (assay: relative binding free energy (BET-seq); higher = weaker binding). Conditions: reference: library average.
T1 sequence: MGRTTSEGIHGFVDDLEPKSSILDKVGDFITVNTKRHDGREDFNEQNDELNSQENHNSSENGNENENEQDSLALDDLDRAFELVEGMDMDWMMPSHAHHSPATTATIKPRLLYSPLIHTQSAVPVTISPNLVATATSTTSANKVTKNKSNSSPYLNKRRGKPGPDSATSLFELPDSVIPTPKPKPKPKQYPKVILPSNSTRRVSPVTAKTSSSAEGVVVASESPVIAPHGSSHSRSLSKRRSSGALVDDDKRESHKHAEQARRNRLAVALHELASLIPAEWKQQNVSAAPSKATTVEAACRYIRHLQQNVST

Sequence	relative binding free energy
AATAGCACGTGATGTG	-0.03 kcal/mol
AGATACACGTGAAGTT	0.33 kcal/mol
GTATTCACGTGATAGT	0.27 kcal/mol
ACTGGCACGTGAGTTG	0.08 kcal/mol
AGAATCACGTGATTTG	0.27 kcal/mol
ACGGGCACGTGTTGTC	0.08 kcal/mol
TATACCACGTGTTTGA	-0.07 kcal/mol
TTCGGCACGTGATGCG	-0.01 kcal/mol
TTTCACACGTGTGGTC	0.03 kcal/mol
TGCTGCACGTGAAAGG	0.2 kcal/mol
CAGGACACGTGGTTGG	0 kcal/mol
GGGGACACGTGGTTAC	0.09 kcal/mol
TTGAGCACGTGGGTGG	-0.19 kcal/mol
TAAATCACGTGGGGTC	-0.04 kcal/mol
TAAGGCACGTGATGCG	0 kcal/mol
TAGGTCACGTGTCGGG	0.12 kcal/mol
TTGCGCACGTGTGTGG	-0.15 kcal/mol
GTATGCACGTGGTCTG	-0.06 kcal/mol
ATTGTCACGTGGTTCT	-0.02 kcal/mol
GTGAGCACGTGTTATA	-0.08 kcal/mol
AATCGCACGTGTGTTG	-0.18 kcal/mol
ATTTTCACGTGGGTCA	0.24 kcal/mol
TAGTGCACGTGATGTA	0.09 kcal/mol
GGGAGCACGTGTTAGA	-0.09 kcal/mol
TATGACACGTGGGTTG	-0.06 kcal/mol

Sequence	relative binding free energy
ATTATCACGTGAGTGA	0.24 kcal/mol
AGTCTCACGTGGTGAG	0.24 kcal/mol
TTTGACACGTGGGATG	-0.07 kcal/mol
TTTGTCACGTGTTCGC	0.07 kcal/mol
TGAAGCACGTGAATTT	0.5 kcal/mol
GTTAACACGTGGTCAG	0.05 kcal/mol
TTCGTCACGTGTAGTT	0.1 kcal/mol
ATATTCACGTGAAGTA	0.41 kcal/mol
TGGTCCACGTGTATAT	-0.05 kcal/mol
TATGTCACGTGTGTAT	0.15 kcal/mol
TTTTCCACGTGGTGGA	-0.01 kcal/mol
ATAAACACGTGAGTTG	0.08 kcal/mol
GTTGGCACGTGTCTTT	0.03 kcal/mol
ATTAGCACGTGGAGTT	0.12 kcal/mol
GTGGGCACGTGTGGTC	0 kcal/mol
TAAGGCACGTGGCATG	-0.19 kcal/mol
ATGAGCACGTGTATGA	-0.05 kcal/mol
GAAGTCACGTGGCGGG	-0.1 kcal/mol
AGAGACACGTGGGGTA	-0.15 kcal/mol
CTAGGCACGTGTTGCG	-0.13 kcal/mol
GTATTCACGTGTGCGC	0.24 kcal/mol
CACGTCACGTGGGTTT	-0.08 kcal/mol
TTTCTCACGTGTTCGT	0.27 kcal/mol
TTGGTCACGTGTGCAC	0.12 kcal/mol
AGTTGCACGTGATGTG	0.07 kcal/mol

Sequence	relative binding free energy
TTCATCACGTGGATTT	0.3 kcal/mol
GAGTCCACGTGGGTCG	0.08 kcal/mol
GTAAACACGTGGAGTA	0.14 kcal/mol
TTGAGCACGTGGGAGA	-0.12 kcal/mol
TTGCTCACGTGAGGGC	0.31 kcal/mol
GTGTGCACGTGAGTTG	0.3 kcal/mol
GGATACACGTGGTGTT	0 kcal/mol
TGGTTCACGTGAAGTG	0.39 kcal/mol
TATGGCACGTGGTTTA	-0.08 kcal/mol
GTGAGCACGTGAGTAT	-0.06 kcal/mol
TAATTCACGTGTTTGG	0.21 kcal/mol
ATCGGCACGTGTTGTC	0.09 kcal/mol
TGTGACACGTGTGCTG	-0.1 kcal/mol
TGTATCACGTGTCGAT	0.06 kcal/mol
AAGGGCACGTGCATGG	-0.16 kcal/mol
ACGTTCACGTGTATGT	0.21 kcal/mol
GGAGGCACGTGTTGAT	-0.06 kcal/mol
ATTTGCACGTGGCAGG	-0.12 kcal/mol
TGGGGCACGTGTGCTC	-0.08 kcal/mol
GTGTTCACGTGAGCGC	0.25 kcal/mol
AGGGTCACGTGGGCGA	-0.01 kcal/mol
TTGCTCACGTGGTAGT	0.25 kcal/mol
TAATGCACGTGGAGTA	-0.12 kcal/mol
TAGAACACGTGAAGTG	0.24 kcal/mol
GTGAGCACGTGTTGCT	-0.13 kcal/mol

Sequence	relative binding free energy
TGTCACACGTGGGTGC	-0.09 kcal/mol
GTTCACACGTGAGGTG	0.32 kcal/mol
TTGGACACGTGGTTCA	0 kcal/mol
AGTTTCACGTGGGTCA	0.09 kcal/mol
GGAATCACGTGGACTG	0.42 kcal/mol
GTATTCACGTGCGGGG	0.26 kcal/mol
TTGTGCACGTGTTAAT	-0.03 kcal/mol
GGTCACACGTGGGGCT	0.12 kcal/mol
TGTGCCACGTGGGCCG	-0.23 kcal/mol
CGGTTCACGTGGTTGC	0.33 kcal/mol
GTTGTCACGTGGAGAA	0.25 kcal/mol
TGGTGCACGTGGCTAG	-0.16 kcal/mol
GGGTACACGTGTCGTT	0.1 kcal/mol
TGATCCACGTGTGGGC	0.06 kcal/mol
AGTTACACGTGCGTGG	-0.07 kcal/mol
GGCAGCACGTGATTTG	0.22 kcal/mol
AGGGTCACGTGTAGTT	0.17 kcal/mol
TTAGTCACGTGTGCGG	0.02 kcal/mol
TTGTACACGTGGTCTA	-0.07 kcal/mol
AAAAGCACGTGAAAGG	0.29 kcal/mol
GTCTACACGTGCGGGG	0.04 kcal/mol
TAGGTCACGTGGACGT	0.04 kcal/mol
CTAGGCACGTGATGGT	0.02 kcal/mol
ATCTTCACGTGCTGGG	0.21 kcal/mol
TGCGTCACGTGTGTTC	0.02 kcal/mol

Sequence	relative binding free energy
CGGAGCACGTGGAGGT	-0.1 kcal/mol
GTGGCCACGTGTAGCG	0.03 kcal/mol
GATGACACGTGTGATG	0.23 kcal/mol
AGTGCCACGTGGGGCT	-0.19 kcal/mol
AGGGGCACGTGAAGAA	0.08 kcal/mol
ATCATCACGTGTGGTT	0.28 kcal/mol
GGTTACACGTGAATGC	0.46 kcal/mol
GGGTACACGTGGATTG	0.03 kcal/mol
CGGGTCACGTGGCTAG	0.18 kcal/mol
TATGACACGTGTGCGT	-0.13 kcal/mol
CTTTACACGTGAGTAT	0.29 kcal/mol
AATCGCACGTGTGTAG	0.02 kcal/mol
AGCGGCACGTGTGGTA	-0.04 kcal/mol
CTTTTCACGTGGTGCG	0.15 kcal/mol
TATGCCACGTGTAAGG	-0.05 kcal/mol
GGGACCACGTGGGATT	0.03 kcal/mol
TATTGCACGTGTGCAG	0.12 kcal/mol
AGTTTCACGTGATCTA	0.27 kcal/mol
TCGATCACGTGGTTAG	0.08 kcal/mol
AGGGACACGTGGGTCT	-0.14 kcal/mol
CGGCGCACGTGGGTGT	-0.43 kcal/mol
GGAGACACGTGGTTCG	0.12 kcal/mol
ATGGGCACGTGTTTCG	-0.06 kcal/mol
GTTAGCACGTGAGGTG	0.19 kcal/mol
GGTGTCACGTGCTCTG	-0.02 kcal/mol

Sequence	relative binding free energy
TTTTGCACGTGTGAGG	0.19 kcal/mol
ATCTGCACGTGTAAGT	0.16 kcal/mol
ATTATCACGTGACGGG	0.33 kcal/mol
AAAGTCACGTGAGCGT	0.3 kcal/mol
GTAGGCACGTGATAAG	0.13 kcal/mol
AGGATCACGTGCTTTT	0.08 kcal/mol
CGTAACACGTGAGGTG	0.12 kcal/mol
TTGGGCACGTGTACGC	-0.04 kcal/mol
TCTATCACGTGGTGGT	0.07 kcal/mol
TGGGGCACGTGTGGCG	-0.05 kcal/mol
TGGAGCACGTGGTGTC	-0.1 kcal/mol
AAAGACACGTGTTGTA	0.05 kcal/mol
TTAGGCACGTGGGATC	-0.19 kcal/mol
AGAATCACGTGTTTGA	0.26 kcal/mol
TTTGTCACGTGGAAAA	0.32 kcal/mol
GTCGTCACGTGGGCCG	0.03 kcal/mol
TATAACACGTGCGTAT	-0.06 kcal/mol
CGCAGCACGTGGTGGT	-0.28 kcal/mol
ATGACCACGTGGTTTG	-0.16 kcal/mol
TAGAGCACGTGTATTT	-0.16 kcal/mol
TGGGGCACGTGGGAGG	-0.13 kcal/mol
